System: Met-1 tumors
Settings: ~0.9 mg rapamycin/kg ip three times per week

**Q.** Which survival post-treatment does the source give for `CO[C@H]1C[C@@H]2CC[C@@H](C)[C@@](O)(O2)C(=O)C(=O)N2CCCC[C@H]2C(=O)O[C@H]([C@H](C)C[C@@H]2CC[C@@H](O)[C@H](OC)C2)CC(=O)[C@H](C)/C=C(\C)[C@@H](O)[C@@H](OC)C(=O)[C@H](C)C[C@H](C)/C=C/C=C/C=C/1C` [rapamycin, Rapamycin] here?
**A.** 24 days

From patent US9844656B2, “Localization of agents at a target site with a composition and an energy source” (The Regents of the University of California, priority 2010, dated 2017)
